The record followed here is ChEMBL document CHEMBL4888484, “Replenishing the malaria drug discovery pipeline: Screening and hit evaluation of the MMV Hit Generation Library 1 (HGL1) against asexual blood stage Plasmodium falciparum ,using a nano luciferase reporter read-out” (2022).

Hit rate of the full screen: of about 150,000 compounds, about 540 (0.36%) showed an effect of 50% or more. The list shows a part of the results.

This test has as its system Plasmodium falciparum. The experiment in a line: Primary screen in NF54 nanoGlo assay, in single point, at 2uM, 72h; a lower Z score goes with more inhibition. It counts as functional, Erythrocyte. The following applies: timepoint 72 hour.
For the compound `Cc1nc2n(n1)CCN(c1ncc(C(F)(F)F)cc1Cl)C2`, the % Inhibition (usually the relative decrease from the control value, in per cent) is recorded as -2% and the Z score was 0.45.

For the compound `CC(C)CCN1CCN(C(=O)COCCOc2ccccc2)CC1`, the “% Inhibition” value is -8% and the Z score is reported as 1.6.

As for `CCn1ncc2c1CCCC2NC(C)C(=O)N1CCC(C)CC1` (stereo unspecified), the “% Inhibition” value is -6% and the Z score is given as 0.72.

Take `Cc1ccccc1Cc1c(C(=O)N2CCCC2)c(=O)cc(C)n1Cc1ccccn1`: the “% Inhibition” value worked out at 4% and the Z score is given as -0.51.

In the case of `Cc1cc(CN(C)CC(=O)O)c(OC(F)F)cc1C`, the “% Inhibition” value turned out to be 2% and the Z score is on record as -0.28.

With `CC(=O)c1ccc(N2CCN(C(=O)C(=O)c3cccn3C)CC2)cc1`, the “% Inhibition” value is given as -6% and the Z score was determined as 0.59.

Turning to `CN(C)[C@H]1CCN(C(=O)Nc2ccccc2-c2ccccc2)C[C@H]1CCC(=O)O`, the “% Inhibition” value was found to be 8% and the Z score was -1.41.

On to `C[C@@H](Cc1cc2ccccc2o1)NC(=O)CN1C(=O)CCC1=O`, for which the “% Inhibition” value was -11% and the Z score is on record as 1.88.

Regarding `O=C1CCN(C(=O)N[C@H](c2ccc(F)cc2)C2CCCC2)CCN1`, the “% Inhibition” value is -7% and the Z score is reported as 1.38.

With `COc1cc(-c2nc(C(=O)N(C)Cc3ccccc3)cs2)ccc1OCc1cccc(Cl)c1`, the “% Inhibition” value is recorded as 6% and the Z score was -0.71.

Turning to `O=C(C1=Cc2ccccc2OC=C1)N1C[C@H]2CC[C@@H](C1)N(CC1CC1)C2`, the “% Inhibition” value is reported as -1% and the Z score is recorded as 0.13.

Turning to `O=C(CCCc1cn[nH]c1)N1CCC(c2cc(O)ncn2)CC1`, the “% Inhibition” value is -11% and the Z score was determined as 1.1.

As to `CCOC(=O)CC1(NC(=O)Nc2c(-c3cccnc3)[nH]c3ccc(F)cc23)CCCCC1`, the “% Inhibition” value is listed as -4% and the Z score is 0.69.

With `CC(C)C1OCCCC1CNC(=O)c1ccc(-c2ncn[nH]2)cc1` (stereo unspecified), the “% Inhibition” value is listed as -15% and the Z score came out at 1.68.

For `Cc1oc(Br)cc1C(=O)N1CCCC[C@H]1c1nc(=O)[nH][nH]1`, the “% Inhibition” value was -13% and the Z score came to 1.77.

Turning to `CC(C)CN1C[C@H](OCc2cccnc2)CN(C(=O)c2cscn2)CC1=O`, the “% Inhibition” value is recorded as 0% and the Z score is on record as 0.06.

Regarding `Cc1nn(C)c(C)c1[C@@H](OC(=O)c1ccncc1F)C(F)(F)F`, the “% Inhibition” value is on record as -3% and the Z score came out at 0.39.

On to `CC1CCN(S(=O)(=O)NCc2ccnc(N3CCN(c4ccc(F)cc4)CC3)c2)CC1`, for which the “% Inhibition” value was found to be 3% and the Z score was -0.51.

As to `Cc1ccc(NS(=O)(=O)c2cc(C(=O)N3CCC(C)CC3)n(C)c2C)cc1Cl`, the “% Inhibition” value is listed as -1% and the Z score is listed as 0.11.

Regarding `COCCN(CC(=O)N(Cc1cccn1Cc1ccccc1)C1CCCCC1)C(=O)C(C)C`, the “% Inhibition” value is reported as -15% and the Z score was found to be 1.78.

As for `O=C(c1ccc2[nH]nnc2c1)N1CCN(c2cnccn2)CC1`, the “% Inhibition” value is recorded as -5% and the Z score is on record as 0.92.

Take `COc1ccccc1C1(CNc2ncccc2C#N)CCOCC1`: the “% Inhibition” value stood at 4% and the Z score is on record as -0.54.

In the case of `COc1ccc(-c2noc(CCN(C(=O)Cc3ccc(F)cc3)C(C)C)n2)cc1OC`, the “% Inhibition” value is -9% and the Z score came out at 1.72.

Consider `CC(C)[C@H](NC(=O)c1ccco1)C(=O)N1CCC1`, for which the “% Inhibition” value is -3% and the Z score stood at 0.26.

For `CN[C@@H]1c2ccccc2N(C(=O)OC(C)(C)C)C[C@H]1O`, the “% Inhibition” value was -11% and the Z score was found to be 1.27.

Turning to `COCCN[C@H]1[C@@H]2OC[C@@H](O2)[C@@H](NCc2ccc(F)cc2)[C@@H]1O`, the “% Inhibition” value is given as -6% and the Z score was 0.98.

On to `C[C@@H]1CN(c2cc([C@H]3C[C@@H](O)C3)ncn2)C[C@H](C)O1`, for which the “% Inhibition” value was found to be 5% and the Z score is given as -0.4.

Regarding `O=C([C@H]1CC(=O)N(C2CCCC2)C1)N1CCc2sccc2C1`, the “% Inhibition” value was -8% and the Z score turned out to be 1.29.

For the compound `COCCNC(=O)N(CCc1cccc(F)c1)C1CC1`, the “% Inhibition” value is -8% and the Z score is 1.37.

For the compound `CCC(=O)N1CCc2c(C(=O)Nc3ccc(OC)cc3OC)cccc21`, the “% Inhibition” value is reported as -9% and the Z score is listed as 1.07.

Consider `CCN1CCC2CCC(C1)N2C(=O)c1ccc(-c2ccc(F)cc2)cc1F` (stereo unspecified), for which the “% Inhibition” value is recorded as -6% and the Z score was determined as 0.64.

As for `Cc1cncc(CN2CCO[C@H](c3ccc(OC(F)F)cc3)C2)c1`, the “% Inhibition” value is given as -4% and the Z score came out at 0.54.

`CN(CC(=O)NC1CCS(=O)(=O)C1)C1C=CCCCCC1` (stereo unspecified): the “% Inhibition” value is reported as -12% and the Z score is listed as 1.36.

`Cc1nnc2c(=O)n(CC(=O)NCC(C)C)c3cccnc3n12`: the “% Inhibition” value was -12% and the Z score is recorded as 1.6.

In the case of `COc1cc(OC)c(C(=O)N2C[C@H]3C[C@H](O)[C@@H](O)C[C@H]3C2)cc1OC`, the “% Inhibition” value amounted to 2% and the Z score is listed as -0.25.

`Cc1cnc(C(F)(F)F)c(C(=O)O)c1`: the “% Inhibition” value is recorded as -7% and the Z score is recorded as 1.31.

In the case of `COc1ccc(C2C3C(=O)N(c4cccc5ccccc45)C(=O)C3ON2c2ccccc2)c(OC)c1OC` (stereo unspecified), the “% Inhibition” value is given as 0% and the Z score turned out to be 0.05.

Turning to `CC(C)c1ccc(C(=O)OCC(=O)Nc2cccc(S(=O)(=O)NC3=NCCC3)c2)cc1`, the “% Inhibition” value is recorded as -9% and the Z score was 1.16.

With `CN1CCC(CCNC(=O)N2CC(Oc3ccccc3)C2)CC1`, the “% Inhibition” value was -13% and the Z score amounted to 2.06.

Consider `C=CCn1ncc(CN(C)CC2(C)COC2)c1C`, for which the “% Inhibition” value is listed as -15% and the Z score was 3.01.

Consider `CN1CCN(Cc2cc(O)c3cc(F)ccc3n2)[C@@H](c2ccccc2)C1`, for which the “% Inhibition” value is reported as -6% and the Z score was found to be 1.05.

With `COc1cc(OC)c(Nc2c(C(=O)N3CCCCCC3)cnc3nc(C)ccc23)cc1Cl`, the “% Inhibition” value is -6% and the Z score stood at 0.95.

Turning to `C[C@@H]1Oc2ccc(N)cc2CN(CC2CCCCC2)C1=O`, the “% Inhibition” value was -18% and the Z score came to 1.73.

`CC(C)Oc1ccc(C(=O)N(CN2CCCC2=O)c2cccc(Cl)c2)cc1`: the “% Inhibition” value was -5% and the Z score came to 0.82.

Take `CN(C)CCN(Cc1ccsc1)Cc1ncc[nH]1`: the “% Inhibition” value is reported as -16% and the Z score is 2.33.

`CC(C)(C)OC(=O)Nc1sccc1Cl`: the “% Inhibition” value is reported as -5% and the Z score is reported as 0.7.

Take `Cc1cc(=O)nc2n(CCCN3C(=O)NC(C)(C)C3=O)ccn12`: the “% Inhibition” value came to 3% and the Z score was -0.68.

Turning to `c1ccc(OCCN2CCC([C@H]3c4[nH]cnc4CCN3Cc3cccnc3)CC2)cc1`, the “% Inhibition” value was -7% and the Z score was 1.07.

Consider `CC1CCN(S(=O)(=O)c2ccc3c(ccc(=O)n3CC(=O)NCc3ccc4c(c3)OCO4)c2)CC1`, for which the “% Inhibition” value is -3% and the Z score is given as 0.41.

`Cc1cncc(-c2nc(CC(N)=O)nn2CC(C)(C)O)c1`: the “% Inhibition” value was -13% and the Z score turned out to be 1.26.

On to `COc1ccc(-c2nnc(C)o2)cc1NC(=O)Cc1cc(C)no1`, for which the “% Inhibition” value is listed as -9% and the Z score is on record as 1.81.

Regarding `CCn1ncnc1[C@H](C)NC(=O)Cc1c(C)nc2ccccn12`, the “% Inhibition” value is -13% and the Z score is reported as 1.8.

For `Cc1ccc(-c2cn[nH]c2[C@H]2CCCN(C(=O)c3cnn4ccn(C)c34)C2)cc1`, the “% Inhibition” value is listed as -17% and the Z score is 2.2.
